# Test results from PubChem BioAssay AID1768 (National Center for Advancing Translational Sciences (NCATS), 2009).
# In all, about 270,000 compounds went through this assay and about 620 (0.23%) were called active. The inconclusive results got no clear call from the source; some entries with a clear call stand among them for comparison. Calls follow the shape of the dose curve; as a rule, active = well fitted inhibition curve with a large enough effect in the polarisation, with a control signal flat (not every such curve was filed as active); inconclusive = small, poorly fitted or top-dose-only effect, or effect the other way, or a change in a side signal; inactive = no such curve, though single readings can be large or run the other way; the % refers to the polarisation. Potencies beside an inconclusive call are fits to weak or partial responses and may not hold up. A note “side channel” means that the fit belongs to a control or component signal, not to the main read-out.
# Target: Menin (Homo sapiens) (UniProt O00255)
# Experiment: qHTS Assay for Inhibitors Targeting the Menin-MLL Interaction in MLL Related Leukemias: Competition With Texas Red Labeled MLL-derived Mutant Peptide; as to FP activity change, negative = inhibition: % of control where 0% means no effect
# Settings: fluorescence polarization; FP activity change, negative = inhibition: at 61.6 µM (top of the series)
# Potency is read from the fitted curve at half-maximal effect; tags tell the direction and shape of the fitted curve or compound fluorescence and quenching.
# UniProt O00255, sequence (O00255 whole entry, looked up): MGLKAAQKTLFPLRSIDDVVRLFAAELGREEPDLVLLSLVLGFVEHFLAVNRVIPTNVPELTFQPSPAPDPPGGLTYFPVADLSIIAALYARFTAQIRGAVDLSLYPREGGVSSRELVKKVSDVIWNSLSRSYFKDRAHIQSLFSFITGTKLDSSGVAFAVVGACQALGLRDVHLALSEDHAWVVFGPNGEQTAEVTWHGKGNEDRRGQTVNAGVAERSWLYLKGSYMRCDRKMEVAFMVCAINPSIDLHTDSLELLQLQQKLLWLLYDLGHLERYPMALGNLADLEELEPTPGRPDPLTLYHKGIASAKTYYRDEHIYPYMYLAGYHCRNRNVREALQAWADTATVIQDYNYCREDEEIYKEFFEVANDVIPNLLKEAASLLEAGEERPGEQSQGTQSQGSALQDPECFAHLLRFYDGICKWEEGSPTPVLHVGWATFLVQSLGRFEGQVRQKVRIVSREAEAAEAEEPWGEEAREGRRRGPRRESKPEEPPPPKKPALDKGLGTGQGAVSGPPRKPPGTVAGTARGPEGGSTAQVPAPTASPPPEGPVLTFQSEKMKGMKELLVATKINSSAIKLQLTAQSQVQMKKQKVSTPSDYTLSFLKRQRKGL
SMILES,Potency,"FP activity change, negative = inhibition"
Cc1cc2oc(=O)cc(CN3CCCCC3C)c2cc1C(C)C (stereo not given),"inconclusive: 11.2 µM [inhibitor, partial curve]",
CCOc1cc(C(=O)Nc2nnc(S(=O)(=O)N3CCOCC3)s2)cc(OCC)c1OCC,"inconclusive: 14.1 µM [quencher, side channel, partial curve]",
Cc1ccc(C)c2[nH]c(=O)c(CN(CCCN(C)C)C(=O)NCc3ccccc3)cc12,,inactive: 0.434%
COc1ccc(CNCCC(c2ccccc2)C2CCOC(C)(C)C2)cc1 (stereo not given),"inconclusive: 15.8 µM [fluorescent, side channel, partial curve]",
COc1cccc(C(=O)NNC(=O)C(=O)Nc2ccc(C)c(Cl)c2)c1,"inconclusive: 22.4 µM [quencher, side channel, single point]",
CCC(C)(C)NC(=O)C(c1ccncc1)N(C(=O)c1sc(C)nc1C)c1ccc(C)cc1 (stereo not given),"inconclusive: 10 µM [fluorescent, side channel, partial curve]",
CCn1c(CNC(=O)COc2ccc(C(C)C)cc2)nnc1SCC(=O)Nc1ccccc1C(C)C,"inconclusive: 10 µM [inhibitor, partial curve]",
O=C(Cc1nc(=O)c2ccccc2s1)Nc1ccccc1,"inconclusive: 25.1 µM [inhibitor, single point]",
O=C(Nc1cccc2cccnc12)c1ccc2c(c1)OCCO2,"inconclusive: 14.1 µM [quencher, side channel, partial curve]",
COc1ccccc1NS(=O)(=O)c1cc(NC(=S)Nc2cc(C)cc(C)c2)ccc1Cl,"inconclusive: 39.8 µM [quencher, side channel, single point]",
Cn1nc([N+](=O)[O-])nc1Sc1cccc2cccnc12,"inconclusive: 14.1 µM [quencher, side channel, partial curve]",
COc1ccc(NC(=O)CCC(=O)OC(C(=O)c2ccccc2)c2ccccc2)cc1 (stereo not given),"inconclusive: 2.51 µM [inhibitor, partial curve, poor fit]",
CC(C)CC(=O)Nc1ccc(Oc2ccc3c(c2)C(=O)NC3=O)cc1,"inconclusive: 22.4 µM [inhibitor, single point]",
Cc1cc(COc2ccccc2OCc2cc(C)no2)on1,"inconclusive: 1.26 µM [inhibitor, partial curve]",
O=C(c1cccc(F)c1)N1CCN(c2cccc(C(F)(F)F)c2)CC1,"inconclusive: 35.5 µM [fluorescent, side channel, partial curve]",
COc1ccc(/C(C)=N/NC(=O)CN(c2ccc(OC)cc2)S(=O)(=O)c2ccccc2)cc1,"inconclusive: 22.4 µM [fluorescent, side channel, partial curve]",
CCCNC(=O)c1ccc(COc2cccc3ccccc23)o1,"inconclusive: 35.5 µM [inhibitor, single point]",
CCOC(=O)C1=C(C)N=C2SC(C)C(=O)N2C1/C=C/c1ccccc1OC (stereo not given),"inconclusive: 31.6 µM [inhibitor, single point]",

SMILES,Potency,"FP activity change, negative = inhibition"
CCc1cc2cc(OC)ccc2nc1SCC(=O)Nc1cc(OC)c(OC)cc1C(=O)O,"inconclusive: 22.4 µM [quencher, side channel, partial curve]",
CCN(CCN(C)C)C(=O)c1ccc2c(c1NCCO)C(=O)c1ccccc1C2=O,"inconclusive: 31.6 µM [fluorescent, side channel, single point]",
O=C(Nc1ccc(OCC(F)(F)C(F)F)c(C(F)(F)F)c1)c1ccccc1O,"inconclusive: 15.8 µM [quencher, side channel, partial curve]",
Cc1ccccc1N1C(S)=C(C#N)C(=O)NC1c1ccco1 (stereo not given),"inconclusive: 39.8 µM [quencher, side channel, single point]",
Oc1ccc(N=Nc2n[nH]c(-c3ccc(Br)cc3)n2)cc1,"inconclusive: 31.6 µM [quencher, side channel, partial curve]",
COc1cccc(NC(=S)N(CCc2c(C)[nH]c3ccccc23)Cc2cccs2)c1,"inconclusive: 10 µM [quencher, side channel, partial curve]",
COc1ccccc1-c1cc(C(=O)N/N=C/c2sccc2C)c2ccccc2n1,"inconclusive: 39.8 µM [inhibitor, single point]",
OC(CNCC1CCCO1)Cn1c2ccc(Cl)cc2c2cc(Cl)ccc21 (stereo not given),"inconclusive: 3.55 µM [inhibitor, partial curve]",
Oc1cc2c(cc1C(c1ccc(Cl)c(Cl)c1)N1CCCC1)OCO2 (stereo not given),"inconclusive: 22.4 µM [quencher, side channel, partial curve]",
Cc1ccc(S(=O)(=O)N2CCc3nc(COc4ccccc4)c4c(c3C2)CO[C@@H](C)C4)cc1,,inactive: -0.407% [at 11.7 µM]
COc1ccc(N=NC2=C(O)CC(C)(C)CC2=O)c(OC)c1,"inconclusive: 3.55 µM [fluorescent, side channel, single point]",
CN(c1ccc(OCC(=O)OCC(=O)Nc2ccc(F)cc2)cc1)S(=O)(=O)c1ccc(Cl)cc1,"inconclusive: 15.8 µM [quencher, side channel, partial curve]",
CCOC(=O)c1cc2cc(OCc3ccccc3)ccc2nc1C,"inconclusive: 25.1 µM [fluorescent, side channel, partial curve]",
Cc1ccc(C)c(SCC(=O)OCC(=O)Nc2ccc(S(=O)(=O)N3CCOCC3)cc2)c1,"inconclusive: 11.2 µM [quencher, side channel, partial curve]",
CN(C)C(=O)c1ccc(Nc2nc(-c3cccs3)nc3ccccc23)cc1,"inconclusive: 25.1 µM [quencher, side channel, partial curve]",
CCOC(=O)C/C(C)=N\Nc1nc(-c2ccccc2)cs1,"inconclusive: 20 µM [quencher, side channel, partial curve]",
COc1ccc(N2CCN(C3CCCN(Cc4cccc(C)c4)C3)CC2)cc1 (stereo not given),"inconclusive: 39.8 µM [inhibitor, single point]",
